What all share (assay): minimum inhibitory concentration
Compound in assay [1]: CC1(C)S[C@@H]2[C@H](NC(=O)[C@H](N)c3ccccc3)C(=O)N2[C@H]1C(=O)O [Ampicillin]
The protocol: (§1)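 Broth microdilution MIC per ISO 10932 on precoated VetMIC Lact-1 plates (tylosin, vancomycin and ampicillin plates prepared manually) against lactic acid bacteria and bifidobacteria isolates. Plates were read visually after 48 h anaerobic incubation (bifidobacteria 72 h; enterococci and staphylococci 24 h aerobic) at species-specific temperatures of 30 or 37 °C. Values prefixed with < or > are outside the tested dilution range.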

Compound in assay [2]: CCC[C@@H]1C[C@@H](C(=O)N[C@@H]([C@H]2O[C@H](SC)[C@H](O)[C@@H](O)[C@H]2O)[C@H](C)Cl)N(C)C1 [Clindamycin]
On the procedure: as §1

Compound in assay [3]: CC[C@H]1OC(=O)[C@H](C)[C@@H](O[C@H]2C[C@@](C)(OC)[C@@H](O)[C@H](C)O2)[C@H](C)[C@@H](O[C@@H]2O[C@H](C)C[C@H](N(C)C)[C@H]2O)[C@](C)(O)C[C@@H](C)C(=O)[C@H](C)[C@@H](O)[C@]1(C)O [Erythromycin]
The protocol:
as §1

Compound in assay [4]: CN(C)[C@@H]1C(O)=C(C(N)=O)C(=O)[C@@]2(O)C(O)=C3C(=O)c4c(O)cccc4[C@@](C)(O)[C@H]3C[C@@H]12 [Tetracycline]
The protocol: as §1

Compound in assay [5]: CNC(C)C1CCC(N)C(OC2C(N)CC(N)C(OC3OCC(C)(O)C(NC)C3O)C2O)O1 [Gentamicin]
The protocol: as §1

Compound in assay [6]: CN[C@@H]1[C@H](O[C@H]2[C@H](O[C@H]3[C@H](O)[C@@H](O)[C@H](N=C(N)N)[C@@H](O)[C@@H]3N=C(N)N)O[C@@H](C)[C@]2(O)C=O)O[C@@H](CO)[C@H](O)[C@H]1O [Streptomycin]
On the procedure: as §1

Compound in assay [7]: NC[C@@H]1O[C@H](O[C@H]2[C@@H](O)[C@H](O[C@@H]3[C@@H](O)[C@H](N)C[C@H](N)[C@H]3O[C@H]3O[C@H](CN)[C@@H](O)[C@H](O)[C@H]3N)O[C@@H]2CO)[C@H](N)[C@@H](O)[C@@H]1O [Neomycin]
On the procedure:
as §1

Compound in assay [8]: NC[C@H]1O[C@H](O[C@H]2[C@H](O)[C@@H](O[C@H]3O[C@H](CO)[C@@H](O)[C@H](N)[C@H]3O)[C@H](N)C[C@@H]2N)[C@H](O)[C@@H](O)[C@@H]1O [Kanamycin]
On the procedure:
as §1

Compound in assay [9]: O=C(N[C@H](CO)[C@H](O)c1ccc([N+](=O)[O-])cc1)C(Cl)Cl [Chloramphenicol]
On the procedure: as §1
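Also: isolates derived from commercial starter, protective, probiotic or feed-additive cultures, from fermented products, from human gut mucosa or feces, and from human milk or colostrum.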

With “Lactiplantibacillus plantarum IM1152 (strain group: non-starter strains)”, the minimum inhibitory concentration was 1 µg/mL in assay [1]; 1 µg/mL in [2]; 0.5 µg/mL in assay [3]; 8 µg/mL in assay [4]; 8 µg/mL in assay [5]; 128 µg/mL in assay [6]. Further, the minimum inhibitory concentration in assay [7] turned out to be 8 µg/mL; in assay [8], 256 µg/mL; in assay [9], 16 µg/mL.
Take “Lactiplantibacillus plantarum IM1153 (strain group: non-starter strains)”: the minimum inhibitory concentration was 1 µg/mL in assay [1]; 2 µg/mL in assay [2]; 0.5 µg/mL in [3]; 16 µg/mL in assay [4]; 8 µg/mL in assay [5]; 256 µg/mL in assay [6]. Moreover, the minimum inhibitory concentration in assay [7] amounted to 16 µg/mL; in assay [8], 256 µg/mL; in assay [9] it was 8 µg/mL.
Regarding “Lactiplantibacillus plantarum IM1154 (strain group: non-starter strains)”, the minimum inhibitory concentration in assay [1] stood at 1 µg/mL; in assay [2] it was 1 µg/mL; in assay [3], 0.5 µg/mL; in assay [4] it was 16 µg/mL; in assay [5], 8 µg/mL; in assay [6], 128 µg/mL. The minimum inhibitory concentration in assay [7] is 8 µg/mL; in assay [8], 256 µg/mL; in assay [9] it was 8 µg/mL.
With “Lactiplantibacillus plantarum IM1156 (strain group: non-starter strains)”, the minimum inhibitory concentration was 2 µg/mL in assay [1]; 2 µg/mL in assay [2]; 0.25 µg/mL in [3]; 8 µg/mL in assay [4]; 2 µg/mL in [5]; 32 µg/mL in assay [6]. Also, the minimum inhibitory concentration in [7] is 4 µg/mL; in assay [8], 64 µg/mL; in assay [9], 4 µg/mL.
Regarding “Lactiplantibacillus plantarum IM1157 (strain group: non-starter strains)”, the minimum inhibitory concentration stood at 2 µg/mL in assay [1]; 1 µg/mL in assay [2]; 0.5 µg/mL in [3]; 16 µg/mL in assay [4]; 8 µg/mL in assay [5]; 128 µg/mL in assay [6]. The minimum inhibitory concentration in assay [7] was 8 µg/mL; in [8], 256 µg/mL; in assay [9], 4 µg/mL.
For “Lactiplantibacillus plantarum IM1158 (strain group: non-starter strains)”, the minimum inhibitory concentration in [1] amounted to 2 µg/mL; in [2], 4 µg/mL; in assay [3], 0.5 µg/mL; in assay [4] it was 8 µg/mL; in [5], 8 µg/mL; in [6] it was 64 µg/mL. Also, the minimum inhibitory concentration in [7] was found to be 8 µg/mL; in assay [8], 128 µg/mL; in assay [9], 4 µg/mL.
As to “Lactiplantibacillus plantarum IM1159 (strain group: non-starter strains)”, the minimum inhibitory concentration in assay [1] stood at 2 µg/mL; in assay [2], 4 µg/mL; in assay [3], 0.5 µg/mL; in assay [4], 8 µg/mL; in assay [5], 8 µg/mL; in [6], 64 µg/mL. Moreover, the minimum inhibitory concentration in assay [7] is 8 µg/mL; in assay [8], 128 µg/mL; in assay [9], 4 µg/mL.
Regarding “Lactiplantibacillus plantarum IM1160 (strain group: non-starter strains)”, the minimum inhibitory concentration in assay [1] stood at 1 µg/mL; in [2], 1 µg/mL; in [3], 0.5 µg/mL; in [4], 16 µg/mL; in assay [5] it was 4 µg/mL; in assay [6], 64 µg/mL. The results for the minimum inhibitory concentration in assay [7], in assay [8] and in [9] were 4 µg/mL, 128 µg/mL and 8 µg/mL, respectively.
“Lactiplantibacillus plantarum IM1161 (strain group: non-starter strains)”: the minimum inhibitory concentration was 2 µg/mL in [1]; 4 µg/mL in [2]; 0.5 µg/mL in [3]; 8 µg/mL in assay [4]; 2 µg/mL in [5]; 32 µg/mL in [6]. The minimum inhibitory concentration in assay [7] turned out to be 4 µg/mL; in [8], 8 µg/mL; in assay [9] it was 4 µg/mL.
Consider “Lactiplantibacillus plantarum IM1162 (strain group: non-starter strains)”, for which the minimum inhibitory concentration was found to be 2 µg/mL in assay [1]; 2 µg/mL in [2]; 0.5 µg/mL in assay [3]; 16 µg/mL in assay [4]; 4 µg/mL in [5]; 64 µg/mL in [6]. The minimum inhibitory concentration in [7] stood at 4 µg/mL; in assay [8] it was 128 µg/mL; in assay [9], 8 µg/mL.
As to “Lactiplantibacillus plantarum IM1163 (strain group: non-starter strains)”, the minimum inhibitory concentration in assay [1] came out at 0.5 µg/mL; in [2], 2 µg/mL; in assay [3], 0.5 µg/mL; in assay [4], 16 µg/mL; in [5] it was 4 µg/mL; in [6] it was 32 µg/mL. In addition, the minimum inhibitory concentration in assay [7] turned out to be 2 µg/mL; in assay [8], 128 µg/mL; in assay [9], 4 µg/mL.
In the case of “Lactiplantibacillus plantarum IM1164 (strain group: non-starter strains)”, the minimum inhibitory concentration in assay [1] stood at 1 µg/mL; in assay [2], 2 µg/mL; in assay [3] it was 0.5 µg/mL; in assay [4] it was 16 µg/mL; in [5] it was 8 µg/mL; in [6] it was 64 µg/mL. Further, the minimum inhibitory concentration in assay [7] was determined as 16 µg/mL; in assay [8], 256 µg/mL; in assay [9] it was 8 µg/mL.
As for “Lactiplantibacillus plantarum IM1285 (strain group: non-starter strains)”, the minimum inhibitory concentration in assay [1] is 1 µg/mL; in [2], less than 0.03 µg/mL; in assay [3], 0.5 µg/mL; in assay [4], 16 µg/mL; in [5], 2 µg/mL; in assay [6], 32 µg/mL. Moreover, the minimum inhibitory concentration in [7] turned out to be 2 µg/mL; in assay [8] it was 128 µg/mL; in [9], 16 µg/mL.
As for “Lactiplantibacillus plantarum IM1288 (strain group: non-starter strains)”, the minimum inhibitory concentration in assay [1] is 1 µg/mL; in [2] it was 0.06 µg/mL; in assay [3], 0.5 µg/mL; in [4], 32 µg/mL; in [5], 8 µg/mL; in [6], 64 µg/mL. The minimum inhibitory concentration in [7] came to 32 µg/mL; in assay [8], 256 µg/mL; in [9], 16 µg/mL.
For “Lactiplantibacillus plantarum IM1291 (strain group: non-starter strains)”, the minimum inhibitory concentration in assay [1] came out at 0.5 µg/mL; in [2] it was 0.06 µg/mL; in [3] it was 1 µg/mL; in assay [4], 16 µg/mL; in assay [5] it was 4 µg/mL; in [6], 32 µg/mL. Further, the figures for the minimum inhibitory concentration in assay [7], in [8] and in assay [9] were 2 µg/mL, 64 µg/mL and 8 µg/mL, respectively.
Consider “Lactiplantibacillus plantarum IM1295 (strain group: non-starter strains)”, for which the minimum inhibitory concentration in [1] amounted to 1 µg/mL; in assay [2], 2 µg/mL; in assay [3], 0.25 µg/mL; in assay [4] it was 16 µg/mL; in assay [5], 4 µg/mL; in assay [6] it was 32 µg/mL. For the same test system, the minimum inhibitory concentration worked out at 4 µg/mL in assay [7], 64 µg/mL in assay [8] and 8 µg/mL in [9].

The values above are taken from the supplement of paper PMC9542798.
